Results on 27 molecules are retold here after the supplement of paper PMC10037445.

SMILES strings stand for the structures. In all, about 2,900 compounds were measured (“NF-kB SEAP reporter activity, fold change vs agonist alone”: median about 0.99, highest 2% from about 2.6 on). Some of the results follow.

Test [1] relates to RAW-Dual. Put plainly: NF-kB SEAP reporter activity, fold change vs agonist alone; higher = enhanced NF-kB activity. The conditions noted are these: library stock concentration (final ~1000-fold dilution): 10 mM. In a few lines: (§1)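 RAW-Dual macrophages were seeded in DMEM at 50,000 cells/well in 384-well plates, given 50 nL of library stock by pin tool, and given a PRR agonist 1 h later. Plates were held at 37 °C, 5% CO2 for 20 hours, after which supernatant was read for IRF by QuantiLuc luminescence and for NF-κB by QuantiBlue absorbance at 620 nm. Reporter activity is expressed as fold change over wells that received agonist alone. A well was called cytotoxic when IncuCyte confluency fell below 70% of agonist controls in both mask sets.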

Test [2] has as its system RAW-Dual. Put plainly: NF-kB SEAP reporter activity, fold change vs agonist alone; cytotoxicity flag (confluency mask): not cytotoxic; higher = enhanced NF-kB activity. In a few lines:
as §1

Test [3] relates to RAW-Dual. Put plainly: NF-kB SEAP reporter activity, fold change vs agonist alone; cytotoxicity flag (confluency mask): cytotoxic (confluency <70% of control); higher = enhanced NF-kB activity. In a few lines:
as §1

Where [4] appears, read: cytotoxicity flag (confluency mask): not cytotoxic, agonist: Imiquimod (TLR7) […].
[5] abbreviates: cytotoxicity flag (confluency mask): not cytotoxic, agonist: MPLA (TLR4) […].
[6] abbreviates: agonist: ODN 1826 (TLR9) 0.5 ug/mL.
Setting [7] is: agonist: Pam2CSK4 (TLR2/6) 0.1 ug/mL.
[8] abbreviates: agonist: Pam3CSK4 (TLR2/1) 0.1 ug/mL.
Where [9] appears, read: cytotoxicity flag (confluency mask): cytotoxic (confluency <70% of control), agonist: Imiquimod (TLR7) […].
The mark [10] stands for this setting: cytotoxicity flag (confluency mask): cytotoxic (confluency <70% of control), agonist: MPLA (TLR4) […].

As for `COc1cc2nccc(Oc3ccc(NC(=O)c4cn(C(C)C)c(=O)n(-c5ccc(F)cc5)c4=O)cc3F)c2cc1OC`, the “NF-kB SEAP reporter activity” value came to 0.658 in the test on RAW-Dual [1] (setting [4]) and 0.63 in the test on RAW-Dual [1] (setting [5]).
`OCC1OC(O)CC(O)C1O` (stereo not drawn) (library stock concentration (final ~1000-fold dilution): 10 mM): the “NF-kB SEAP reporter activity” value is 1.33 in the test on RAW-Dual [2] (agonist: LPS (TLR4) 0.1 ug/mL), 1.1 with RAW-Dual [2] (setting [6]), 1.4 in the test on RAW-Dual [2] (setting [7]) and 1.04 in the test with RAW-Dual [2] (setting [8]).
In the case of `OCC1OC(O)CC(O)C1O` (stereo not drawn), the “NF-kB SEAP reporter activity” value in the test on RAW-Dual [1] (setting [5]) amounted to 1.07.
With `CCCCOc1c(C(=O)c2c(F)cc(C)cc2F)cnc2[nH]ncc12` (library stock concentration (final ~1000-fold dilution): 10 mM), the “NF-kB SEAP reporter activity” value turned out to be 0.894 in the test with RAW-Dual [2] (agonist: LPS (TLR4) 0.1 ug/mL), 1.15 in the test on RAW-Dual [2] (setting [6]), 1.8 with RAW-Dual [2] (setting [7]) and 1.94 in the test with RAW-Dual [2] (setting [8]).
With `CCCCOc1c(C(=O)c2c(F)cc(C)cc2F)cnc2[nH]ncc12`, the “NF-kB SEAP reporter activity” value with RAW-Dual [1] (setting [4]) amounted to 1.58; in the test on RAW-Dual [1] (setting [5]), 1.55.
With `Nc1nc2c(cnn2CCc2ccccc2)c2nc(-c3ccco3)nn12`, the “NF-kB SEAP reporter activity” value in the test on RAW-Dual [1] (setting [4]) was found to be 1.34; in the test on RAW-Dual [1] (setting [5]) it was 1.38.
With `Nc1nc2c(cnn2CCc2ccccc2)c2nc(-c3ccco3)nn12` (library stock concentration (final ~1000-fold dilution): 10 mM), the “NF-kB SEAP reporter activity” value in the test on RAW-Dual [2] (agonist: LPS (TLR4) 0.1 ug/mL) is 1.57; with RAW-Dual [2] (setting [6]), 1.28; in the test with RAW-Dual [2] (setting [7]) it was 1.2; in the test with RAW-Dual [2] (setting [8]), 1.87.
For the molecule `CNC(=O)c1c(F)cccc1Nc1nc(Nc2cc3c(cc2OC)CCN3C(=O)CN(C)C)nc2[nH]ccc12` (library stock concentration (final ~1000-fold dilution): 10 mM), the “NF-kB SEAP reporter activity” value with RAW-Dual [3] (agonist: LPS (TLR4) 0.1 ug/mL) was found to be 0.959; in the test on RAW-Dual [3] (setting [6]) it was 0.373; in the test with RAW-Dual [3] (setting [7]) it was 0.22; in the test on RAW-Dual [3] (setting [8]), 1.05.
As to `CNC(=O)c1c(F)cccc1Nc1nc(Nc2cc3c(cc2OC)CCN3C(=O)CN(C)C)nc2[nH]ccc12`, the results for the “NF-kB SEAP reporter activity” value in the test on RAW-Dual [1] (setting [9]) and in the test on RAW-Dual [1] (setting [10]) were 1.33 and 1.08, respectively.
In the case of `Cc1cccc(C)c1OCC(C)N.Cl` (stereo not drawn), the “NF-kB SEAP reporter activity” value was 0.972 with RAW-Dual [1] (setting [4]) and 1.12 in the test with RAW-Dual [1] (setting [5]).
Take `Cc1cccc(C)c1OCC(C)N.Cl` (stereo not drawn) (library stock concentration (final ~1000-fold dilution): 10 mM): the “NF-kB SEAP reporter activity” value in the test on RAW-Dual [2] (agonist: LPS (TLR4) 0.1 ug/mL) is 1.37; in the test on RAW-Dual [2] (setting [6]) it was 0.887; in the test with RAW-Dual [2] (setting [7]), 1.19; in the test on RAW-Dual [2] (setting [8]) it was 1.03.
As to `O=C(/C=C/c1cccc(S(=O)(=O)Nc2ccccc2)c1)NO` (library stock concentration (final ~1000-fold dilution): 10 mM), the “NF-kB SEAP reporter activity” value was found to be 5.83 with RAW-Dual [3] (agonist: LPS (TLR4) 0.1 ug/mL), 2.3 with RAW-Dual [3] (setting [6]), 0.848 in the test on RAW-Dual [3] (setting [7]) and 1.76 with RAW-Dual [3] (setting [8]).
With `O=C(/C=C/c1cccc(S(=O)(=O)Nc2ccccc2)c1)NO`, the “NF-kB SEAP reporter activity” value stood at 2.39 in the test with RAW-Dual [1] (setting [9]) and 2.58 in the test on RAW-Dual [1] (setting [10]).
In the case of `CN(C)C(=O)/C(C#N)=C/c1ccc(-c2nc3cnc4[nH]ccc4c3n2C2CCCCC2)o1` (library stock concentration (final ~1000-fold dilution): 10 mM), the “NF-kB SEAP reporter activity” value with RAW-Dual [2] (agonist: LPS (TLR4) 0.1 ug/mL) is 0.46; in the test on RAW-Dual [2] (setting [6]), 0.729; with RAW-Dual [2] (setting [7]), 0.315; with RAW-Dual [2] (setting [8]), 0.52.
Regarding `CN(C)C(=O)/C(C#N)=C/c1ccc(-c2nc3cnc4[nH]ccc4c3n2C2CCCCC2)o1`, the “NF-kB SEAP reporter activity” value came out at 0.765 in the test on RAW-Dual [1] (setting [4]) and 0.698 in the test on RAW-Dual [1] (setting [5]).
In the case of `COc1ccc2c(OC3CC4C(=O)NC5(C(=O)NS(=O)(=O)C6CC6)CC5/C=C\CCCCN(C)C(=O)C4C3)cc(-c3nc(C(C)C)cs3)nc2c1C` (stereo not drawn) (library stock concentration (final ~1000-fold dilution): 10 mM), the “NF-kB SEAP reporter activity” value worked out at 3.16 with RAW-Dual [2] (agonist: LPS (TLR4) 0.1 ug/mL), 0.926 in the test on RAW-Dual [2] (setting [6]), 0.842 in the test with RAW-Dual [2] (setting [7]) and 0.952 in the test on RAW-Dual [2] (setting [8]).
Regarding `COc1ccc2c(OC3CC4C(=O)NC5(C(=O)NS(=O)(=O)C6CC6)CC5/C=C\CCCCN(C)C(=O)C4C3)cc(-c3nc(C(C)C)cs3)nc2c1C` (stereo not drawn), the “NF-kB SEAP reporter activity” value with RAW-Dual [1] (setting [5]) came to 1.03.
As for `CC(C)(C)c1cc(NC(=O)Nc2ccc(-c3cn4c(n3)sc3cc(OCCN5CCOCC5)ccc34)cc2)no1`, the results for the “NF-kB SEAP reporter activity” value in the test with RAW-Dual [1] (setting [4]) and in the test on RAW-Dual [1] (setting [5]) were 1.62 and 1.76, respectively.
As to `CC(C)(C)c1cc(NC(=O)Nc2ccc(-c3cn4c(n3)sc3cc(OCCN5CCOCC5)ccc34)cc2)no1` (library stock concentration (final ~1000-fold dilution): 10 mM), the “NF-kB SEAP reporter activity” value was determined as 1.64 with RAW-Dual [2] (agonist: LPS (TLR4) 0.1 ug/mL), 2 in the test with RAW-Dual [2] (setting [6]), 1.32 in the test with RAW-Dual [2] (setting [7]) and 1.4 in the test on RAW-Dual [2] (setting [8]).
Regarding `CN1CCN(c2ccc(-c3cccc(CN4CCOCC4)c3)cc2NC(=O)c2c[nH]c(=O)cc2C(F)(F)F)CC1` (library stock concentration (final ~1000-fold dilution): 10 mM), the “NF-kB SEAP reporter activity” value in the test on RAW-Dual [2] (agonist: LPS (TLR4) 0.1 ug/mL) is 1.11; in the test on RAW-Dual [2] (setting [6]) it was 0.188; in the test on RAW-Dual [2] (setting [7]), 1.21; in the test on RAW-Dual [2] (setting [8]), 1.24.
For the molecule `CN1CCN(c2ccc(-c3cccc(CN4CCOCC4)c3)cc2NC(=O)c2c[nH]c(=O)cc2C(F)(F)F)CC1`, the “NF-kB SEAP reporter activity” value was determined as 0.971 in the test on RAW-Dual [1] (setting [4]) and 0.997 with RAW-Dual [1] (setting [5]).
Consider `N#C/C(=C(/N)Sc1ccc(N)cc1)c1ccccc1C(F)(F)F` (library stock concentration (final ~1000-fold dilution): 10 mM), for which the “NF-kB SEAP reporter activity” value worked out at 0.379 in the test on RAW-Dual [2] (agonist: LPS (TLR4) 0.1 ug/mL), 0.387 in the test with RAW-Dual [2] (setting [6]), 0.133 in the test on RAW-Dual [2] (setting [7]) and 0.245 in the test on RAW-Dual [2] (setting [8]).
On to `N#C/C(=C(/N)Sc1ccc(N)cc1)c1ccccc1C(F)(F)F`, for which the “NF-kB SEAP reporter activity” value in the test with RAW-Dual [1] (setting [4]) was 0.337; in the test on RAW-Dual [1] (setting [5]) it was 0.401.
Consider `CN(C)CCCN1c2ccccc2CCc2ccc(Cl)cc21.Cl`, for which the “NF-kB SEAP reporter activity” value in the test with RAW-Dual [1] (setting [4]) is 0.58; in the test on RAW-Dual [1] (setting [5]), 0.661.
In the case of `CN(C)CCCN1c2ccccc2CCc2ccc(Cl)cc21.Cl` (library stock concentration (final ~1000-fold dilution): 10 mM), the “NF-kB SEAP reporter activity” value was determined as 1.39 in the test on RAW-Dual [2] (agonist: LPS (TLR4) 0.1 ug/mL), 0.785 in the test on RAW-Dual [2] (setting [6]), 1.07 with RAW-Dual [2] (setting [7]) and 0.772 in the test with RAW-Dual [2] (setting [8]).
As for `COc1cc2nc(N3CCN(C(=O)C4COc5ccccc5O4)CC3)nc(N)c2cc1OC` (stereo not drawn), the “NF-kB SEAP reporter activity” value turned out to be 1.23 in the test with RAW-Dual [1] (setting [4]) and 1.28 with RAW-Dual [1] (setting [5]).
With `COc1cc2nc(N3CCN(C(=O)C4COc5ccccc5O4)CC3)nc(N)c2cc1OC` (stereo not drawn) (library stock concentration (final ~1000-fold dilution): 10 mM), the “NF-kB SEAP reporter activity” value in the test with RAW-Dual [2] (agonist: LPS (TLR4) 0.1 ug/mL) amounted to 1.07; in the test on RAW-Dual [2] (setting [6]) it was 0.178; in the test with RAW-Dual [2] (setting [7]), 1.09; in the test with RAW-Dual [2] (setting [8]), 1.32.
